Reference: PMC7596085, “The pathogenic S688Y mutation in the ligand-binding domain of the GluN1 subunit regulates the properties of NMDA receptors” (Scientific Reports, 2020)

Tests used:
[1] = target: hGluN1-4a/hGluN2A (UniProt P35439+Q12879, I267L/M415L/N159S/R212K)
[2] = target: hGluN1-4a-S688Y/hGluN2A (UniProt P35439+Q12879, I267L/M415L/N159S/R212K/S688Y)
[3] = target: hGluN1-4a-S688Y/hGluN2B (UniProt P35439+Q13224, I267L/M415L/N159S/R212K/S688Y)
[4] = target: hGluN1-4a/hGluN2B (UniProt P35439+Q13224, I267L/M415L/N159S/R212K)

SMILES | EC50 [1] [nM] | Hill coefficient (h) [1] | EC50 [2] [mM] | Hill coefficient (h) [2] | EC50 [3] [µM] | Hill coefficient (h) [3] | EC50 [4] [nM] | Hill coefficient (h) [4] | Hill coefficient (h) ([4]; steady-state concentration-response for glutamate, HEK293, in the presence of 100 µM glycine)
N[C@H](CO)C(=O)O [D-serine] | 1770 ± 190 | 1.37 ± 0.03 | 1.07 ± 0.0296 | 1.48 ± 0.02 | 152 ± 9.67 | 1.19 ± 0.03 | 470 ± 20 | 1.20 ± 0.03 | 
N[C@@H](CCC(=O)O)C(=O)O [glutamate] |  |  |  |  |  |  |  |  | 1.33 ± 0.03

Like-named read-outs stand apart in the source and are kept apart here.
